Measured values taken from PubChem BioAssay AID1460 (National Center for Advancing Translational Sciences (NCATS), 2008).
About 5,800 (2.1%) of roughly 270,000 compounds were called active. The inconclusive results got no clear call from the source; some entries with a clear call stand among them for comparison. The call rests on the fitted dose curve; in most records, active means well fitted inhibition curve with a large enough effect; inconclusive means small, poorly fitted or top-dose-only effect; inactive means flat fitted curve, though single readings scatter. Where the call is inconclusive, the potency comes from a doubtful curve fit.

Biological target: Microtubule-associated protein tau (Homo sapiens) (UniProt P10636)
Sequence of UniProt P10636 (P10636 whole entry, looked up): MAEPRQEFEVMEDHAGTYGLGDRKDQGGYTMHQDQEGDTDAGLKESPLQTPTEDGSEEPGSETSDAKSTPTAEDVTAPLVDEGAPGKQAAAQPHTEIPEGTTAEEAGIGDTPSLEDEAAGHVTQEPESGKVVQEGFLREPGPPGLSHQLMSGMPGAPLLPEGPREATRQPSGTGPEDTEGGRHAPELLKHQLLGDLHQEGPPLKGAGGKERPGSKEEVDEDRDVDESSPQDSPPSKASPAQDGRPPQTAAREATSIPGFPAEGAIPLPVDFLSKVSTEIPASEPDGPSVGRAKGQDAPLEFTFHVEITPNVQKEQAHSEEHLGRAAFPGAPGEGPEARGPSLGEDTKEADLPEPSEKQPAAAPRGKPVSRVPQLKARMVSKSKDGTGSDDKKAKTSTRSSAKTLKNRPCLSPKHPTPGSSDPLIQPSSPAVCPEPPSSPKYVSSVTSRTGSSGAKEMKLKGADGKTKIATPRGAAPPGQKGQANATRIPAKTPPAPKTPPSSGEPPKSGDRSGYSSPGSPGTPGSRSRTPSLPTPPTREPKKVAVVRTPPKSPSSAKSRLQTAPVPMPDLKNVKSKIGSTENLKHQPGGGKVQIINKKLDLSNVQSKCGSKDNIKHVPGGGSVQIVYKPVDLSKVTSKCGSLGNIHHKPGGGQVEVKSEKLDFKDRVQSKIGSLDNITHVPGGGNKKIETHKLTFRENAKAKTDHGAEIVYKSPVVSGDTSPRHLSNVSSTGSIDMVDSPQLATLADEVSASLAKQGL
Assay: qHTS for Inhibitors of Tau Fibril Formation, Thioflavin T Binding; further: nearly all actives have a fitted effect of over 55% in size
Settings: recombinant tau K18 P301L (four-repeat tau fragment), heparin-induced fibrillization, ThT fluorescence; series mostly up to 57.4 µM
In short: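 Heparin-induced fibrillization of the P301L-mutant K18 repeat-domain fragment of human tau was followed by ThT binding in quantitative high-throughput format.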
Potency means the concentration at half of the fitted maximal effect; tags describe the fitted curve by direction and shape.

SMILES | Potency
CN(C(=O)CSc1nc(-c2ccccc2)cn1N)C(c1ccccc1)c1ccccc1 | inconclusive: 25.1 µM [inhibitor, single point]
CC1CCC2C(=O)OC(Cc3ccccc3)CN2C1c1ccc(Br)cc1 (stereo unspecified) | inconclusive: 3.55 µM [inhibitor, partial curve]
CC(=O)C(Cl)C(=O)Nc1ccccc1 (stereo unspecified) | active: 25.1 µM
COC(=O)C(=Cc1ccc(-c2ccsc2C(=O)OC)o1)C(=O)OC | inconclusive: 25.1 µM [inhibitor, single point]
CN(C)/C=C/C(=O)c1ccc(N2CCN(c3ncc(C(F)(F)F)cc3Cl)CC2)cc1 | inconclusive: 15.8 µM [inhibitor, partial curve]
Cn1c(=O)oc2cc(S(=O)(=O)NC(Cc3ccccc3)C(=O)Nc3ccc(F)c(Cl)c3)ccc21 (stereo unspecified) | inactive
CN(C)S(=O)(=O)c1ccc(C(=O)OCC(=O)NCc2ccco2)cc1 | inactive
CCOc1ccc(C(=O)Nc2ccc3nc(N(CC)CC)cc(C)c3c2)cc1 | inconclusive: 2.51 µM [inhibitor, partial curve]
Cc1ccc(/C=C/C(=O)Nc2ccc3nc(N4CCC(C)CC4)cc(C)c3c2)cc1 | active: 2.51 µM
CC(C(=O)O)c1ccc(N2Cc3ccccc3C2=O)cc1 (stereo unspecified) | inactive
Cc1cc(-c2csc(N)n2)c(C)n1CCC(C)C | inconclusive: 20 µM [inhibitor, partial curve]
Cc1cc(C)nc(N(C#N)Cc2cccc(Cl)c2)n1 | inactive
CC1(C)CC(=O)C2=C(C1)N1C(=C(C#N)C2c2ccc(Cl)cc2)N=C(N)c2ccccc21 (stereo unspecified) | inconclusive: 12.6 µM [inhibitor, partial curve]
Cc1ccc(-c2nc(SCC(=O)c3c(N)n(C)c(=O)n(C)c3=O)n[nH]2)cc1 | inactive
N=C1/C(=C\c2ccc(SCc3ccccc3)o2)C(=O)N=C2SC=NN12 | active: 8.91 µM
CC(=O)NNc1cc(N2CCOCC2)nc(N2CCOCC2)n1 | inactive
CCOC(=O)c1c(C)oc2nc(C)nc(NCCc3ccc(Cl)cc3)c12 | inconclusive: 35.5 µM [inhibitor, single point]
CC(C)(C)NC(=O)c1cccc(NC(=O)c2ccc(NC(=O)c3ccco3)cc2)c1 | inconclusive: 10 µM [inhibitor, partial curve]
Cc1ccc(NC(=O)Cn2c(=O)n(Cc3ccc4c(c3)OCO4)c(=O)c3oc4ccccc4c32)cc1C | inconclusive: 44.7 µM [activator, single point]
CC(C)CC(OC(=O)c1nsc(Cl)c1Cl)C(=O)NCc1cccs1 (stereo unspecified) | inactive
Cc1cccc(NC(=O)c2cn(-c3ccccc3)nc2-c2ccccc2)c1C | inactive
CCCOc1ccc([C@@H]2C3CN(C(=O)OCC)CC=C3C(C#N)=C(N)C2(C#N)C#N)cc1OC (stereo partly specified) | inconclusive: 25.1 µM [inhibitor, partial curve]
CCOC(=O)CC(CC(C)=O)C(=O)OCC (stereo unspecified) | inactive

SMILES | Potency
Cc1nc(Nc2ccccc2)sc1C | inactive
CC1(C)CC(NNCCC#N)=CC(=[N+]2CCCC2)C1 | inconclusive: 14.1 µM [inhibitor, partial curve]
CC1Cc2cc(/C(O)=C3/C(=O)C(=O)N(CCN4CCOCC4)C3c3cccc(Cl)c3)ccc2O1 (stereo unspecified) | inactive
COc1ccc(OC)c(-c2cc(C(=O)NCc3cccs3)no2)c1 | inconclusive: 6.31 µM [inhibitor, single point]
COc1cc(C)c(CNc2cc(C)cc(C)c2)cc1C | inconclusive: 17.8 µM [inhibitor, partial curve]
CN(C)/C=C/C(=O)c1ccc(Cl)c([N+](=O)[O-])c1 | inconclusive: 14.1 µM [inhibitor, partial curve]
O=[N+]([O-])c1ccccc1/C=N/n1c(COc2ccccc2)n[nH]c1=S | inconclusive: 25.1 µM [inhibitor, partial curve]
COc1ccccc1CCNC(=O)CSc1nc(-c2ccco2)cc(C(F)(F)F)n1 | inactive
Clc1ccccc1Cn1c(-c2cccs2)nc2ccccc21 | inconclusive: 25.1 µM [inhibitor, single point]
O=[N+]([O-])c1ccc(C[n+]2ccc(Cc3ccccc3)cc2)cc1 | inconclusive: 15.8 µM [inhibitor, partial curve]
N[C@]1(C(=O)O)CCc2cc(C(=O)O)ccc21 | inconclusive: 28.2 µM [inhibitor, single point]
Cc1ccc(NC(=O)Cc2cc(C(=O)O)c3ccccc3n2)c(C)c1 | inconclusive: 11.2 µM [inhibitor, partial curve, poor fit]
CC(=O)Nc1cccc(NC(=S)Nc2ccc(F)c(Cl)c2)c1 | inconclusive: 39.8 µM [inhibitor, single point]
CCCCOc1ccc(C(=O)Nc2cc(-c3cn4cccnc4n3)ccc2OC)cc1 | inactive
CCN(C)c1ccc(/C=N\n2nnnc2N)cc1 | inconclusive: 5.62 µM [inhibitor, partial curve]
CC(=O)Nc1ccc(S(=O)(=O)Nc2cccc(-c3cn4c(n3)SCC4)c2)cc1 | inactive
COc1cccc(NC2=C(C#N)C(=O)NC(c3cccc(OC)c3O)S2)c1 (stereo unspecified) | active: 31.6 µM
CCN(CC)CCCNC(=O)c1ccc2c(c1)sc1nc(-c3ccc(C)cc3)cn12 | inconclusive: 20 µM [inhibitor, partial curve]
CCOc1c(Cl)cc(CNc2ccc3[nH]c(=O)[nH]c3c2)cc1OC | inconclusive: 28.2 µM [inhibitor, partial curve]
CNS(=O)(=O)c1cccc(C(=O)OCC(=O)c2cc(C)n(-c3ccc4c(c3)OCO4)c2C)c1 | inconclusive: 14.1 µM [inhibitor, partial curve]
O=C(Oc1cccnc1)c1ccc([N+](=O)[O-])cc1Cl | inconclusive: 10 µM [inhibitor, partial curve]
Cc1c(NC(=O)/C(C#N)=C/c2ccc(-c3ccccc3Cl)o2)c(=O)n(-c2ccccc2)n1C | inconclusive: 28.2 µM [inhibitor, partial curve]
Cc1cccc(NC(=O)CN(C)S(=O)(=O)c2ccc3c(c2)c(=O)n(C)c(=O)n3C)c1C | inactive
